# In paper PMC4336329 (PLoS ONE, 2015):
# The campaign covered roughly 310,000 compounds. About 2,200 (0.71%) showed an effect of 50% or more. Effects have a minus sign here. The list shows a part of the results.
# Target: human ether-à-go-go-related gene (hERG) potassium channel (human, UniProt Q12809)
# Assay: primary screen, population patch clamp on CHO cells stably expressing hERG
# Protocol: Briefly, Chinese hamster ovary (CHO) cells stably expressing the hERG channel were dislodged from tissue culture flasks and dispensed into PPC plates. […] During the recording, background leak currents were estimated by a 100 ms step to -80 mV from an initial holding potential of -70 mV and subtracted from the subsequent current measurement. The campaign was conducted in two phases using slight differences in recording protocol. In the first phase, the initial voltage pulse used a 100 ms step to -30 mV from a holding potential of -70 mV, a 2 s conditioning step to +25 mV, and a 2 s test step to -30 mV. During the second phase of the screen, the potential during the conditioning step was raised to +45 mV. In both phases of the campaign, a secondary voltage pulse was applied using the same parameters as the second phase initial pulse. The initial and secondary pulses were applied in the absence of compound, and upon application of 1 μM and 10 μM test concentrations. Small molecule effects on hERG current density were quantified by […].
# human ether-à-go-go-related gene (hERG) potassium channel, sequence (Q12809 whole entry, looked up): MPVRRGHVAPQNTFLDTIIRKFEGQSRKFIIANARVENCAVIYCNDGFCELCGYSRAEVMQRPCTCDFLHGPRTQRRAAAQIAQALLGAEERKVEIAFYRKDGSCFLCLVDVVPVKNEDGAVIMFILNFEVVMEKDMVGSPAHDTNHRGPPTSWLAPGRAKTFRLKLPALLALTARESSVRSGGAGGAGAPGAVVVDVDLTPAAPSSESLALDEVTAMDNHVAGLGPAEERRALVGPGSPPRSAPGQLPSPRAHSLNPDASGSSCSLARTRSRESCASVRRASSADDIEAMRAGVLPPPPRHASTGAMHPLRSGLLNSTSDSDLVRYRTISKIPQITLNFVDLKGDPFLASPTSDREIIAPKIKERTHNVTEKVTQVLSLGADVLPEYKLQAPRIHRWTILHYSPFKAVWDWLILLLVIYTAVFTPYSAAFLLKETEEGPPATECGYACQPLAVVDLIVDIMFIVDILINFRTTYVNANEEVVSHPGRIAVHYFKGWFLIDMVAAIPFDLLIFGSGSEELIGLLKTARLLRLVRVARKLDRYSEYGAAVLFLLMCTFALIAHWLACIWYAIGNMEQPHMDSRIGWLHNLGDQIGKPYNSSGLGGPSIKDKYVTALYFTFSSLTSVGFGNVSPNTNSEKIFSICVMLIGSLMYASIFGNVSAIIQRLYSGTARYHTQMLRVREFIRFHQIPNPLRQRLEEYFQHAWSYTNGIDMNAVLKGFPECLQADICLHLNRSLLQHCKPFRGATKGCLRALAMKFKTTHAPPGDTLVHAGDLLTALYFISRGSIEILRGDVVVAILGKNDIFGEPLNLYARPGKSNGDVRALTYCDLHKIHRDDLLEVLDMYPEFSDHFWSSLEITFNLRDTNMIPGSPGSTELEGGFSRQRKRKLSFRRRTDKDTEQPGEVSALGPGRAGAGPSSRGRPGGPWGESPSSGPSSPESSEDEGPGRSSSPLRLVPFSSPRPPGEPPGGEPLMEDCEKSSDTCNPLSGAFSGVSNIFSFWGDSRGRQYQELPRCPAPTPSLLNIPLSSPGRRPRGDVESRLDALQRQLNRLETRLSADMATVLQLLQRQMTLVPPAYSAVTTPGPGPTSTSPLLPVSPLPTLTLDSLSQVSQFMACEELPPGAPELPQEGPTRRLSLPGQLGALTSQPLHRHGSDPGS
row,SMILES,"hERG current change (%, negative = inhibition) at 1uM [%]"
1,COc1ccc(CCNC(=O)C2CCCN(S(=O)(=O)c3cccc4nonc34)C2)cc1OC (centres unmarked),14.1
2,CCOc1ccccc1C(=O)NCC(=O)OCC(=O)c1ccc2c(c1)OCCO2,-6
3,Cc1sc(NC(=O)CCl)c(C(=O)c2ccccc2)c1C,15.1
4,CCN(CC)S(=O)(=O)c1cc(C(=O)Nc2cc(C)on2)c(Cl)cc1Cl,16.2
5,COc1ccc(CC(=O)N2CCC(c3ccccc3)C2)cc1 (centres unmarked),5.25
6,COc1cc(C(=O)NCc2cccnc2)ccc1OCC(=O)Nc1cccc(C(F)(F)F)c1,2.87
7,CCN(CC)CCNC(=O)CNC(=O)c1nn(-c2ccc(OC)c(OC)c2)c(=O)c2ccccc12,13.1
8,Cc1ccc(NC(=O)C2CCN(S(=O)(=O)c3cccc4nonc34)CC2)nc1,10.1
9,O=C(c1cc([N+](=O)[O-])ccc1Cl)N1CCN(c2ccccn2)CC1,10.5
10,N#C/C(=C\c1cc([N+](=O)[O-])c(N2CCOCC2)cc1N1CCOCC1)c1nc2ccccc2[nH]1,-0.443
11,CCOC(=O)C1CCCN(C(=O)c2sc3nc(-c4ccccc4)cn3c2C)C1 (centres unmarked),-8.83
12,COc1ccc(/C=N/n2c(C)nc3ccccc3c2=O)cc1,14.4
13,COc1ccc(C2/C(=C(/O)c3ccc4c(c3)CC(C)O4)C(=O)C(=O)N2CCCN2CCOCC2)cc1OC (centres unmarked),7.28
14,COc1cccc(NC(=O)C2CCN(c3cnccn3)CC2)c1,7.74
15,COc1ccccc1C(=O)COC(=O)c1nc(Cl)ccc1Cl,8.71
16,CN(c1ccccc1)S(=O)(=O)c1nnc(NC(=O)c2ccco2)s1,12.2
17,O=C(Nc1nc(-c2ccccc2)c(-c2ccccc2)s1)c1ccc(S(=O)(=O)N2CCCC2)cc1,7.54
18,COc1ccc2c(c1OC)C(=O)N(c1nccs1)C2,8.11
19,Cn1cc(S(=O)(=O)N2CCc3ccccc3C2)c(=O)n(C)c1=O,2.59
20,COc1cccc(-c2noc(-c3ccoc3C)n2)c1,26.8
21,O=C(Nc1cccc(S(=O)(=O)NC2=NCCC2)c1)C1CC(=O)N(c2ccc3c(c2)OCCO3)C1 (centres unmarked),11.8

row,SMILES,"hERG current change (%, negative = inhibition) at 1uM [%]"
1,O=C(Nc1nc(-c2ccccc2)c(C(=O)c2ccccc2)s1)c1ccc(S(=O)(=O)N2CCCCC2)cc1,5.98
2,COc1ccc(C2=NOC(Cn3nc(C(=O)NCc4ccc(OC(F)(F)F)cc4)cc3-c3ccccc3)C2)cc1 (centres unmarked),-1.05
3,CCC(C)NS(=O)(=O)c1ccc(NC(=O)c2c(-c3ccccc3)noc2C)cc1 (centres unmarked),7.49
4,CCn1c(SCC(=O)N/N=C/C(C)=C\c2ccco2)nnc1-c1ccccc1,-8.34
5,CC(NCCC1(Cc2ccccc2Cl)CCOC(C)(C)C1)c1cccs1 (centres unmarked),5.67
6,O=C(Nc1ccc(Cc2nc3ccccc3s2)cc1)c1ccncc1,10.7
7,CCNC(=O)Nc1cc(S(=O)(=O)Nc2ccc(OC)cc2)ccc1N1CCOCC1,4.31
8,O=C(CCNS(=O)(=O)c1cccs1)NCc1ccco1,3.35
9,NC(=O)c1cc([N+](=O)[O-])c(Cl)cc1NCc1ccncc1,12
10,CCN(CC)CCN(C(=O)c1ccc(S(=O)(=O)N(CC)c2ccccc2)cc1)c1nc2c(OC)ccc(OC)c2s1.Cl,6.77
11,CCCn1nc(C(=O)Nc2cc(C(=O)OC)ccc2C)c2ccccc2c1=O,1.48
12,CCOc1ccc(-c2csc3ncn(-c4ccc(OC)cc4)c(=O)c23)cc1,8.39
13,O=[N+]([O-])c1ccc(/C=C/c2ccc3cccc([N+](=O)[O-])c3n2)cc1,7.84
14,COC(=O)c1ccc(OCC(O)CN2CCN(C(=O)c3ccco3)CC2)c(OC)c1 (centres unmarked),5.43
15,NC(=O)N/N=C1\CCS(=O)(=O)c2ccc(F)cc21,18.6
16,COC(=O)c1ccc(SCC(=O)N2CCC(C)CC2)c([N+](=O)[O-])c1,3.93
17,CC(=O)Nc1ccc(OCC(=O)NCc2ccc(C)cc2)cc1,1
18,O=C1CN=C(c2cc([N+](=O)[O-])ccc2Cl)c2cc([N+](=O)[O-])ccc2N1,8.43
19,CCOCCSc1nc2c(c(-c3cccs3)c1C#N)CC/C2=C/c1cccs1,14.8
20,COc1ccc(OC(=O)c2ccc(OC)c(S(=O)(=O)N3CCOCC3)c2)cc1,4.5
21,CCOc1ccc(S(=O)(=O)n2nc(C)cc2C)cc1,13.8

row,SMILES,"hERG current change (%, negative = inhibition) at 1uM [%]"
1,CN(CCCNC(=O)c1cc2c(Cl)nc3ccccc3c2s1)Cc1ccccc1,4.48
2,Cc1ccc(S(=O)(=O)N(C)CC(=O)O/N=C(\N)c2cccc([N+](=O)[O-])c2)cc1,0.303
3,CCC(C)[C@@H](C(=O)Nc1ccc2c(c1)OCO2)N1Cc2ccccc2C1=O (some centres unmarked),3.29
4,CCOc1cc2c(cc1OCC)C(c1ccccc1)N(c1ccccc1)C(=O)C2 (centres unmarked),9.47
5,O=C(N/N=C/C1C(c2ccccc2)C1(Cl)Cl)c1cccc(Br)c1 (centres unmarked),10.6
6,COC(=O)c1cc(S(=O)(=O)NC2CCC(C)CC2)cn1C (centres unmarked),14.3
7,Cc1cc(Br)cc(C)c1OCCCCN(C)C.O=C(O)C(=O)O,-20.1
8,O=C(Nc1nnc(-c2ccccc2)o1)Nc1ccc(F)cc1F,2.16
9,O=C(O)c1ccc(N2C(=O)C3C4c5ccccc5C(Br)(c5ccccc54)C3C2=O)cc1 (centres unmarked),11.3
10,CCOc1cccc(N2C(=O)CC(N3CCC(C(N)=O)(N4CCCCC4)CC3)C2=O)c1 (centres unmarked),13.9
11,CC(=O)c1c(C)[nH]c(C(=O)CSc2nnc(-c3ccccc3)o2)c1C,15
12,CCN1CCc2c(sc3c2c(NCc2ccco2)nc2nnnn23)C1,-69.3
13,Cn1nccc1C(=O)N1CCC(Cc2ccccc2)CC1,-1.78
14,Cc1ccc(NC(=S)N(CCN(C)C)Cc2cccs2)cc1C,9.88
15,CCCn1c(SCC(=O)N2CCc3ccccc32)nnc1-c1ccco1,10.1
16,COc1cccc2c1C(CO)N1C(C#N)C3CC(C(=O)O)C(C1C2)N3C (centres unmarked),7.66
17,O=C(NCc1ccccn1)c1cccc(S(=O)(=O)Nc2ccc(SC(F)F)cc2)c1,0.435
18,CC(C)(C)NC(=O)CN(C(=O)CCC(=O)Nc1nccs1)c1cccc(C(F)(F)F)c1,1.88
19,COCc1c(CCl)cnc(C)c1O,20.7
20,O=C1C/C(=C\c2c(F)cccc2Cl)N2CCC1CC2,0.848
21,Cc1nc2ccccn2c1C(=O)NNC(=S)Nc1ccc(Cl)cc1,0.76

row,SMILES,"hERG current change (%, negative = inhibition) at 1uM [%]"
1,COc1ccccc1NS(=O)(=O)c1cc(C(=O)NCCN2CCOCC2)ccc1Cl.Cl,2.92
2,O=C(COC(=O)c1n[nH]c2ccccc12)Nc1ccc(S(=O)(=O)N2CCCC2)cc1,4.84
3,O=C(NCCc1c[nH]c2ccccc12)/C(=C/c1cccnc1)NC(=O)c1ccco1,-14.7
4,Cc1ccc(CN2CCN(/N=C/c3cc(Br)ccc3O)CC2)cc1,14.9
5,CCOc1ccc(CCNC(=O)COC(=O)c2ccc(F)c(S(=O)(=O)N3CCOCC3)c2)cc1OCC,5.48
6,Nc1ccc(-c2cc(-c3cccc(N)c3)nc(-c3ccccc3)n2)cc1,13.7
7,COc1ccccc1NC(=S)N1CCC(NC(=O)C23CC4CC(CC(C4)C2)C3)CC1,3.95
8,Cc1cc(C(=O)COC(=O)C2=NNC(=O)CC2)c(C)n1CCc1ccccc1,5.67
9,Cc1ccc(NC(=O)c2cnn(-c3ccccc3)c2C)cc1,11.3
10,ON1C2CCCCC2N(O)C1c1ccccc1 (centres unmarked),15.1
11,COc1cccc(-c2cc(C(=O)NC3CCCCC3)no2)c1,6.32
12,O=C(Cc1ccc(Cl)cc1)NNC(=O)c1ccco1,17
13,Cc1cc(-c2ccccc2)nc2cc(C(=O)N(Cc3ccccc3)Cc3ccccc3)nn12,-3.92
14,CC(C)N(Cc1ccccc1)S(=O)(=O)c1ccc(Cl)nc1,6.97
15,O=C(NC1CCCCC1)[C@@H]1CC=C[C@@H]2CCN(Cc3ccccc3)C(=O)[C@@H]21,13.9
16,O=C(NCc1ccc(Cl)cc1Cl)C1CC(=O)N(Cc2ccccc2)C1 (centres unmarked),-14.6
17,CCC(=O)OCC(=O)Nc1cc(S(=O)(=O)N(C)C)ccc1Cl,19.8
18,Cc1ccc(C)c(S(=O)(=O)NC(C)C(=O)NCc2ccccn2)c1 (centres unmarked),17.4
19,COC(=O)[C@@]1(Cc2ccc(OC)cc2)[C@H]2c3cc(C(=O)N(C)C)n(Cc4c(CO)[nH]cc(C)c4=O)c3C[C@H]2CN1C(=O)c1ccccc1,9.85
20,C=CCNC(=S)Nc1ccc(N2CCOCC2)c(S(=O)(=O)Nc2ccccc2Cl)c1,9.02
